Target: the molecule itself
Assay: negative-stain TEM; 1 µM purified protein on carbon-coated copper grids, uranyl acetate stain, non-crowding conditions

B1: Aip5, full length (actin-interacting protein 5) (natural protein)
chain: not shown
notes: Heterogeneous higher-order oligomers; no defined number of copies; also called Aip5-FL; full-length Aip5; source: budding yeast (YMY2043, galactose-induced overexpression), purified (Ni-NTA, Superdex200 SEC)
B1: binds.

Source: publication PMC6838200, “Polarisome scaffolder Spa2-mediated macromolecular condensation of Aip5 for actin polymerization” (Nature Communications, 2019)
